This is an account of results in article PMC4336329 (PLoS ONE, 2015).

Among all 310,000 compounds or so, about 14,000 (4.5%) showed an effect of 50% or more. Effects have a minus sign here. Some of the results follow.
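Note: peak tail current of the secondary pulse compared with the same well before compound.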

Sequence of human ether-à-go-go-related gene (hERG) potassium channel (Q12809 whole entry, looked up): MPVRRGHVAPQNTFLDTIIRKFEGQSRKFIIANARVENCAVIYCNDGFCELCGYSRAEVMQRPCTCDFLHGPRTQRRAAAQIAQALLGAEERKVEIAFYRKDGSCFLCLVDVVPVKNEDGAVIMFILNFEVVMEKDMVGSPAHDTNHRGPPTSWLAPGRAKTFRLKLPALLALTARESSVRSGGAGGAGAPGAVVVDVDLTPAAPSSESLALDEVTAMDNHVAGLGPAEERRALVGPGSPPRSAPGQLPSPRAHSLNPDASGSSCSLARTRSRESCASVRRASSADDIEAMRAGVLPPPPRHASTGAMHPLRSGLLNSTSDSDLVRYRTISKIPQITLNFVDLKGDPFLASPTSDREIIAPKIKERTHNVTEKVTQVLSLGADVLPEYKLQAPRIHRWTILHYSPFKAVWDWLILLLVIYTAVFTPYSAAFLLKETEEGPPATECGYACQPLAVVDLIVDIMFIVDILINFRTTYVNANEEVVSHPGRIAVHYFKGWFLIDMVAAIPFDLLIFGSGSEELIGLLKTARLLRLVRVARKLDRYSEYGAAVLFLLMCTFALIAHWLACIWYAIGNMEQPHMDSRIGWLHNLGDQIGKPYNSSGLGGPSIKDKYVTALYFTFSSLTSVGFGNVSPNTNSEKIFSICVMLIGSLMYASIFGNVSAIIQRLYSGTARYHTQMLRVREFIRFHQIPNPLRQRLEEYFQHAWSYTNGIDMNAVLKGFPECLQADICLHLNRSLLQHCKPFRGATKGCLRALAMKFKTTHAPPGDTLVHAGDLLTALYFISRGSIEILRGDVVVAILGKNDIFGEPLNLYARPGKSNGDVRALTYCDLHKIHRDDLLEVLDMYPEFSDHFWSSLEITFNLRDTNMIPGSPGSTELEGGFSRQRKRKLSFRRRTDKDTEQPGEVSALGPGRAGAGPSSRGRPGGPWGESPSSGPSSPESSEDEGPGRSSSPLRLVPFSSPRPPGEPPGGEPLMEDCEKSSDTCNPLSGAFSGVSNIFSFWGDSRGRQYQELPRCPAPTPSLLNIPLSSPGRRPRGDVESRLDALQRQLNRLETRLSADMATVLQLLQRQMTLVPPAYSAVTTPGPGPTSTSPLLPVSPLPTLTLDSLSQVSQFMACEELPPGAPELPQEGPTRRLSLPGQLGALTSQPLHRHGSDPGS

This assay concerns the target human ether-à-go-go-related gene (hERG) potassium channel (human, UniProt Q12809). Put plainly: primary screen, population patch clamp on CHO cells stably expressing hERG.
On to `CC1CCCCC1NC(=O)CSc1nc2ccccc2c(=O)n1Cc1ccco1` (centres unmarked), for which the “hERG current change (%, negative = inhibition) at 10uM” value is reported as 13%.

With `CC(C)(C)CN1CCNC[C@H]1Cc1cccc2ccccc12`, the “hERG current change (%, negative = inhibition) at 10uM” value stood at 15.7%.

`CCn1c(CC(=O)Nc2ccccc2)nnc1SCC(=O)Nc1nnc(C)s1`: the “hERG current change (%, negative = inhibition) at 10uM” value is reported as 15%.

Consider `CCCCNC(=O)/C(C#N)=C/c1ccc(C(=O)OC)cc1`, for which the “hERG current change (%, negative = inhibition) at 10uM” value was found to be 23.5%.

On to `COc1ccc(NC(=O)C(Sc2ccccc2)c2ccccc2)c(OC)c1` (centres unmarked), for which the “hERG current change (%, negative = inhibition) at 10uM” value came out at 0.758%.

As for `CN(C)S(=O)(=O)c1cccc(C(=O)N2CCC(C(=O)O)(c3ccccc3)CC2)c1`, the “hERG current change (%, negative = inhibition) at 10uM” value is listed as 19.3%.

As to `O=C(Nc1ccc(S(=O)(=O)N2CCCCC2)cc1)C1CC(=O)N(c2ccc(Cl)cc2)C1` (centres unmarked), the “hERG current change (%, negative = inhibition) at 10uM” value was 1.07%.

With `COc1ccc(NS(=O)(=O)c2cccc(C(=O)NCc3ccco3)c2)cc1`, the “hERG current change (%, negative = inhibition) at 10uM” value is -15.8%.

In the case of `CC(C)C[C@H](NC(=O)[C@@H]1Cc2c([nH]c3ccccc23)C2c3ccccc3C(=O)N21)C(=O)N1CCC[C@@H]1C(=O)O` (some centres unmarked), the “hERG current change (%, negative = inhibition) at 10uM” value is on record as 7.77%.

Turning to `CC1(C)Cc2c(C#N)c(SCCOc3ccccc3)nc(N3CCOCC3)c2CO1`, the “hERG current change (%, negative = inhibition) at 10uM” value is given as -9.49%.

Turning to `CC(=O)C(Sc1nc(N2CCOCC2)nc(N2CCOCC2)n1)C(=O)Nc1ccccc1` (centres unmarked), the “hERG current change (%, negative = inhibition) at 10uM” value was -1.74%.

Turning to `CC12CCC(C(=O)N3CCCCC3)([C@H](Br)C1=O)C2(C)C` (some centres unmarked), the “hERG current change (%, negative = inhibition) at 10uM” value came out at 2.72%.

For `COc1ccccc1CNC(=O)C(=O)c1cn(CC(=O)N2CCOCC2)c2ccccc12`, the “hERG current change (%, negative = inhibition) at 10uM” value was determined as 0.703%.

Regarding `Cc1c(NC(=O)COC(=O)CCc2c[nH]c3ccccc23)c(=O)n(-c2ccccc2)n1C`, the “hERG current change (%, negative = inhibition) at 10uM” value is recorded as -26.8%.

As to `CC(=O)c1c(C)oc2ccc(NS(=O)(=O)c3cccs3)cc12`, the “hERG current change (%, negative = inhibition) at 10uM” value turned out to be 13.2%.

On to `O=C(/C=C/c1ccc(OCCCF)cc1)NCc1ccc(Cl)c(Cl)c1`, for which the “hERG current change (%, negative = inhibition) at 10uM” value is on record as 4.17%.

Turning to `COc1ccc(Cc2nn[nH]n2)cc1`, the “hERG current change (%, negative = inhibition) at 10uM” value stood at 17%.

In the case of `CCOC(=O)c1c(P(=O)(N2CCOCC2)N2CCOCC2)noc1N`, the “hERG current change (%, negative = inhibition) at 10uM” value was -0.372%.

Take `O=C(N/N=C/c1cccnc1)c1ccc2c(c1)OCCO2`: the “hERG current change (%, negative = inhibition) at 10uM” value stood at 8.1%.

`O=C(NCc1ccccc1)c1sc(=S)n2c1[nH]c(=O)c1ccccc12`: the “hERG current change (%, negative = inhibition) at 10uM” value is recorded as -25.7%.

As for `COc1ccc(OC)c(N(CC(=O)NC2CC2)S(=O)(=O)c2ccc(C)cc2)c1`, the “hERG current change (%, negative = inhibition) at 10uM” value is reported as -9.12%.

As to `Cc1ccc(C(=O)NC(=S)Nc2ccccc2C(F)(F)F)cc1`, the “hERG current change (%, negative = inhibition) at 10uM” value was 16.3%.

For the compound `O=c1c2ccccc2ncn1-c1ccc(Cl)c(Cl)c1`, the “hERG current change (%, negative = inhibition) at 10uM” value is -1.01%.

With `C=CCSc1nnc2c(n1)OC=Nc1ccc(Br)cc1-2`, the “hERG current change (%, negative = inhibition) at 10uM” value is listed as -24.9%.

On to `CCC1(C(=O)OC)NC(c2cccc(F)c2)C2C(=O)N(C)C(=O)C21` (centres unmarked), for which the “hERG current change (%, negative = inhibition) at 10uM” value turned out to be 27.8%.

For the compound `CCOC(=O)c1c(S(=O)(=O)NCC(=O)Nc2cc(C)ccc2C)c(C)n(C)c1C`, the “hERG current change (%, negative = inhibition) at 10uM” value was -30.9%.

With `Oc1ccccc1/C=N/n1c(COc2ccccc2)n[nH]c1=S`, the “hERG current change (%, negative = inhibition) at 10uM” value turned out to be 19%.

As for `COc1cccc(-c2coc3cc4oc(=O)c(CCC(=O)O)c(C)c4cc23)c1`, the “hERG current change (%, negative = inhibition) at 10uM” value is listed as -8.79%.

For the compound `CN(C(=O)CSc1nnc(Cc2cccc3ccccc23)n1N)C1CCS(=O)(=O)C1` (centres unmarked), the “hERG current change (%, negative = inhibition) at 10uM” value was 17.5%.

As for `CC1=C(C(=O)OC(C)C)C(c2cccs2)N2C(=O)C(C)SC2=N1` (centres unmarked), the “hERG current change (%, negative = inhibition) at 10uM” value was 6.04%.

For `CCC1C(O)=C(c2ccccn2)C(=N)N1c1ccccc1` (centres unmarked), the “hERG current change (%, negative = inhibition) at 10uM” value was 1.47%.

Regarding `COC(=O)c1cc(S(=O)(=O)NCC2CCN(Cc3ccccc3F)CC2)c[nH]1`, the “hERG current change (%, negative = inhibition) at 10uM” value is given as -21.4%.

Take `Cn1nc(C(F)(F)F)c(/C=N/OC(=O)c2ccccc2)c1SCc1ccccc1Cl`: the “hERG current change (%, negative = inhibition) at 10uM” value is -4.9%.

`CCC(=O)N1c2ccccc2NC2=C(C(=O)CCC2)C1c1ccco1` (centres unmarked): the “hERG current change (%, negative = inhibition) at 10uM” value was 22.9%.

Take `CCCCn1c(N)c(N(CCOC)C(=O)c2cc3c(s2)CCC3)c(=O)[nH]c1=O`: the “hERG current change (%, negative = inhibition) at 10uM” value is 0.214%.

Consider `O=C1CCC(C(=O)OCC(=O)c2ccccc2)N1` (centres unmarked), for which the “hERG current change (%, negative = inhibition) at 10uM” value is 23.7%.

As for `O=C(Nc1ccccc1)C1CCCN(C(=O)c2ccc(Cl)cc2)C1` (centres unmarked), the “hERG current change (%, negative = inhibition) at 10uM” value is reported as -9.92%.

Take `Cc1ccc(-n2nc(C)c(NS(=O)(=O)c3ccccc3)c2C)cc1C`: the “hERG current change (%, negative = inhibition) at 10uM” value is given as -16.9%.

For `O=C(Cc1ccc(O)cc1)NCCNC(=S)NCc1ccccc1`, the “hERG current change (%, negative = inhibition) at 10uM” value turned out to be 13.2%.

`Cc1cc(C)n2nc(SCC(=O)c3ccccc3)nc2n1`: the “hERG current change (%, negative = inhibition) at 10uM” value is on record as -27.5%.

As to `CC(CC(=O)O)n1nnc2ccccc21` (centres unmarked), the “hERG current change (%, negative = inhibition) at 10uM” value is recorded as -1.15%.

For the compound `Cc1ccsc1/C=N/Nc1ccc(F)cc1F`, the “hERG current change (%, negative = inhibition) at 10uM” value is on record as 16.6%.

On to `CC(=NCc1cccnc1)C1=C(O)c2ccccc2C1=O`, for which the “hERG current change (%, negative = inhibition) at 10uM” value is recorded as -27.9%.

As to `CC(C)CN(C(=O)COC(=O)CN1C(=O)c2ccccc2C1=O)c1c(N)n(Cc2ccccc2)c(=O)[nH]c1=O`, the “hERG current change (%, negative = inhibition) at 10uM” value came to 15.3%.

Turning to `Cc1ccccc1NC(=S)Nc1ccc2cn[nH]c2c1`, the “hERG current change (%, negative = inhibition) at 10uM” value was -0.285%.

On to `O=C(NC(C(=O)c1ccccc1)n1ccc(=O)[nH]c1=O)c1ccccc1` (centres unmarked), for which the “hERG current change (%, negative = inhibition) at 10uM” value is on record as -7.32%.

On to `CC(NC(=O)CCNC(=O)c1ccccc1Cl)C1CC2CCC1C2` (centres unmarked), for which the “hERG current change (%, negative = inhibition) at 10uM” value is -5.78%.

`CCOc1ccc(CCNC(=O)Cn2ccc3ccccc3c2=O)cc1OCC`: the “hERG current change (%, negative = inhibition) at 10uM” value is 3.39%.

Turning to `O=C(COC(=O)C1CCCCC1)Nc1ccc(S(=O)(=O)N2CCOCC2)cc1`, the “hERG current change (%, negative = inhibition) at 10uM” value is -6.65%.

`Cc1onc(-c2ccccc2)c1NC(=O)N(CCC#N)Cc1ccccc1`: the “hERG current change (%, negative = inhibition) at 10uM” value was 3.65%.

As to `COc1cccc(CN2CCN(c3nc4nonc4nc3NC3CC3)CC2)c1`, the “hERG current change (%, negative = inhibition) at 10uM” value was -9.54%.

In the case of `CC(C)c1ccc(S(=O)(=O)N2CCCCC2)cc1`, the “hERG current change (%, negative = inhibition) at 10uM” value is reported as -27.4%.

As to `CC(Nc1nc(-c2ccc(Cl)cc2)cs1)c1nc2cc(Cl)c(N3CCCCC3)cc2n1CCOCCO` (centres unmarked), the “hERG current change (%, negative = inhibition) at 10uM” value worked out at 6.93%.

For `O=C(COC(=O)c1ccc2ccccc2n1)c1ccc(F)cc1`, the “hERG current change (%, negative = inhibition) at 10uM” value is -14.8%.

On to `CCC(=O)NC1=C(Nc2ccc(N)cc2)C(=O)c2ccccc2C1=O`, for which the “hERG current change (%, negative = inhibition) at 10uM” value is on record as 24.4%.

For `COc1ccc(CNCC(O)(c2ccc(F)cc2)c2ccc(F)cc2)cc1`, the “hERG current change (%, negative = inhibition) at 10uM” value is reported as -67.3%.
